Measurements published in the supplement of paper PMC12217912.
Some of the results follow. Sequences were assembled here from the parent chain. Values near 0.05 are background.

B1: TEV protease; numbered along this chain (parent)
chain: MGESLFKGPRDYNPISSSICHLTNESDGHTTSLYGIGFGPFIITNKHLFRRNNGTLVVQSLHGVFKVKDTTTLQQHLVDGRDMIIIRMPKDFPPFPQKLKFREPQREERICLVTTNFQTKSMSSMVSDTSCTFPSGDGIFWKHWIQTKDGQCGSPLVSTRDGFIVGIHSASNFTNTNNYFTSVPKNFMELLTNQEAQQWVSGWRLNADSVLWGGHKVFMVKPEEPFQPVKEATQL

Variants of: B1
Test: raw area under fraction-flipped curve 0-4 h after induction (AUC4h, not background-subtracted), DNA-recorder readout of cleavage of the substrate (dimensionless); higher = more cleavage of the substrate by the protease variant
Conditions: temperature: 34 °C; time window: 0-4 h after rhamnose induction
Procedure: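 In vivo DNA recorder in E. coli TOP10(DE3) ΔrhaA at 34 °C. Each TEVp single-site mutant (parent TEVp 0) is paired with a single-site variant of the 7-mer TEVs (canonical ENLYFQ|S). The substrate sits between flexible linkers in a Bxb1-sfGFP-TEVs-SsrA fusion, so cleavage stabilises Bxb1 and speeds flipping of a recombination array, read by NGS. The value is the raw area under the fraction-flipped curve over 0-4 h after rhamnose induction (AUC4h), with ≥20 reads per time point. It is not background-subtracted; inactive controls average about 0.047.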
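Further: Bxb1 expression induced with 0.2% (w/v) L-rhamnose at OD600 near 0.5, cultures sampled hourly, flipped fraction per protease–substrate barcode pair counted by paired-end Illumina sequencing.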

Row | Variant | area with substrate ENLYEQS | area with substrate ENLYGQS | area with substrate ENLYKQS | area with substrate ENLYLQS | area with substrate ENLYMQS | area with substrate ENLYNQS | area with substrate ENLYQQS | area with substrate ENLYRQS | area with substrate ENLYSQS | area with substrate ENLYTQS | area with substrate ENLYVQS | area with substrate ENLYHQS | area with substrate ENLYIQS | area with substrate ENLYWQS | area with substrate ENLYYQS | area with substrate ENLYPQS
1 | H62V | 0.0768 | 0.0772 | 0.0622 | 0.081 | 0.0789 | 0.0686 | 0.0702 | 0.057 | 0.0669 | 0.0515 | 0.141 | – | – | – | – | –
2 | T71C | 0.0738 | 0.061 | 0.0499 | – | 0.0784 | 0.0656 | 0.0675 | 0.0488 | 0.0604 | 0.0814 | 0.0698 | 0.0346 | 0.0766 | 0.0785 | 0.0658 | –
3 | D82Y | 0.0515 | 0.0583 | 0.067 | – | 0.0615 | 0.0502 | 0.0482 | 0.043 | 0.0558 | – | – | 0.0475 | – | 0.0469 | – | –
4 | K100R | 0.0754 | 0.138 | 0.1 | 0.109 | 0.11 | 0.0671 | – | 0.067 | – | – | – | 0.0688 | 0.132 | – | – | 0.0582
5 | K142F | 0.0557 | 0.0805 | – | 0.0754 | 0.0786 | 0.0751 | – | 0.0594 | 0.0506 | 0.0799 | 0.0888 | 0.0687 | – | 0.0458 | 0.0682 | 0.0622
6 | H143C | 0.0763 | 0.0428 | 0.0618 | – | – | 0.083 | 0.0647 | – | 0.0719 | 0.0617 | – | 0.0618 | 0.0964 | – | – | –
7 | Q146R | 0.0723 | 0.0653 | 0.0787 | 0.0736 | – | 0.0847 | 0.0765 | 0.0543 | 0.0633 | 0.0688 | 0.108 | 0.0695 | – | – | 0.0726 | 0.0787
8 | C152S | 0.067 | 0.0639 | 0.0346 | 0.0408 | 0.0571 | 0.0608 | 0.0682 | 0.0586 | 0.078 | – | 0.0576 | 0.0534 | 0.0658 | – | – | 0.053
9 | S201K | 0.0663 | 0.0952 | 0.0703 | – | 0.0737 | – | – | – | – | 0.0695 | – | – | – | – | 0.0581 | 0.0711
10 | F92H | – | – | 0.0503 | – | 0.0728 | 0.0733 | 0.0713 | 0.0652 | 0.0728 | – | – | 0.0686 | – | 0.0816 | 0.0582 | –
